Molecular target: T1, hPTH (1-34) (human, UniProt P01270)
T1 peptide: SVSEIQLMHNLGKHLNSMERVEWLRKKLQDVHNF
Assay: cell-based or functional assay

B1: hPTHrP ([…])-NH2 (peptide)
peptide: not shown
modifications: C-terminal amide (NH2)
IC50 Ratio: 50% inhibition of cAMP output, MC3T3-E1 mouse osteoblasts: 0.087 ratio of IC50 to that of [Tyr34]-hPTH(3-34)-NH2
